Out of some 310,000 compounds screened, about 2,200 (0.71%) showed an effect of 50% or more. The effect is printed as a negative number. This is one part of the list.

These results are taken from article PMC4336329 (PLoS ONE, 2015).

For the experiment, the target named is human ether-à-go-go-related gene (hERG) potassium channel (human, UniProt Q12809). The experiment in a line: primary screen, population patch clamp on CHO cells stably expressing hERG.
Chain of human ether-à-go-go-related gene (hERG) potassium channel (Q12809 whole entry, looked up): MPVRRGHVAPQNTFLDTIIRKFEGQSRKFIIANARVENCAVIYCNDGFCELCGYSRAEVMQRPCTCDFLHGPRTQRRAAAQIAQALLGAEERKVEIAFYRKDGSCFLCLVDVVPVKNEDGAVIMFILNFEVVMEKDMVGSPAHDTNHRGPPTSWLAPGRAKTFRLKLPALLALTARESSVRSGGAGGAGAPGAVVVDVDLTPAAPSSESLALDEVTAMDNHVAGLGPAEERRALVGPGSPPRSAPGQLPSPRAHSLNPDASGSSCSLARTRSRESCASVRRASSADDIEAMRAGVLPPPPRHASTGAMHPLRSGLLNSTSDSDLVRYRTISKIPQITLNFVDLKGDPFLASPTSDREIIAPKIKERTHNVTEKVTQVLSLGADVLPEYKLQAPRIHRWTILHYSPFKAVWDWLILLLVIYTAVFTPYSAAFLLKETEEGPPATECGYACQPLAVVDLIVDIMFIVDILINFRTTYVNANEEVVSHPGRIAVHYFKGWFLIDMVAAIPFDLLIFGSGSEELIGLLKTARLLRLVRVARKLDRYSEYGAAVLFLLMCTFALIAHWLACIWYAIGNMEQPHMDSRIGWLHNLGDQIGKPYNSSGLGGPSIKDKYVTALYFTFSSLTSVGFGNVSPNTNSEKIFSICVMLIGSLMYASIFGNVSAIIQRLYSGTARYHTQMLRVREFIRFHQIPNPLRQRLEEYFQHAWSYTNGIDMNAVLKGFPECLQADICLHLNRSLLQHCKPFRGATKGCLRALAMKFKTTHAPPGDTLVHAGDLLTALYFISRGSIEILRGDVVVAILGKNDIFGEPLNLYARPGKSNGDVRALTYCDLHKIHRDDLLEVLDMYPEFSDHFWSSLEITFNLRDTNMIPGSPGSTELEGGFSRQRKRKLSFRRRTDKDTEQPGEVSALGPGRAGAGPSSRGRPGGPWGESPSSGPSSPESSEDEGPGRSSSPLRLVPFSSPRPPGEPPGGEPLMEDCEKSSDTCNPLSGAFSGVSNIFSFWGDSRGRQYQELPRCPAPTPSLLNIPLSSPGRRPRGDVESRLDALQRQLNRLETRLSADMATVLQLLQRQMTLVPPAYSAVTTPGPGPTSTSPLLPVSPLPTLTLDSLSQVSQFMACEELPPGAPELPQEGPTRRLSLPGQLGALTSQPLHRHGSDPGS
Consider `Brc1ccc(-c2nn[nH]n2)cc1`, for which the “hERG current change (%, negative = inhibition) at 1uM” value is 13.1%.

Regarding `CCOC(=O)N1CCC(NC(=O)c2ccc3c(c2)N(C)C(=O)/C(=C/c2cccc(OC)c2)S3)CC1`, the “hERG current change (%, negative = inhibition) at 1uM” value is listed as 9.68%.

Consider `Cc1c(N=N/C(C(=O)Nc2ccccc2)=C(/O)c2ccccc2)c(=O)n(-c2ccccc2)n1C`, for which the “hERG current change (%, negative = inhibition) at 1uM” value is on record as 9.48%. Under `C=CCNC(=S)NCc1ccccc1` stands 6.64%; under `CCOC(=O)NN1C(=O)c2ccccc2NC1C` (stereo not drawn), -5.18%; under `N=c1c2c(-c3ccccc3)c(-c3ccccc3)n(Cc3ccco3)c2ncn1Cc1ccco1`, -26.8%. `O=C1c2ccccc2-c2nnc(-c3ccc(F)cc3)cc21`: the “hERG current change (%, negative = inhibition) at 1uM” value worked out at 4.98%.

Regarding `O=c1[nH]cnc2c1c(-c1ccccc1)cn2-c1cccc(Cl)c1`, the “hERG current change (%, negative = inhibition) at 1uM” value is given as 7.89%. Under `Cn1c(-c2cccs2)[n+](C)c2ccccc21.[Cl-]` stands 6.22%; under `CCN1CCN(C(CNS(=O)(=O)c2cccs2)c2cccnc2)CC1` (stereo not drawn), -26.8%. Under `COc1ccc2c(c1)C(C)=CC(C)(C)N2C(=O)CNCc1ccc2c(c1)OCO2.O=C(O)C(=O)O` stands -6.29%. Under `CC(C)(C)C1CCC(OC(=O)CCC(=O)Nc2ccccc2)CC1` (stereo not drawn) stands 11%.

In the case of `CCn1c(CN2CCN(c3ccc(OC)cc3)CC2)nc2cc(S(=O)(=O)N(C)C)ccc21`, the “hERG current change (%, negative = inhibition) at 1uM” value stood at 15.6%. As to `COc1ccccc1C1CC(c2ccc(Cl)cc2Cl)Nc2nc(N)nn21` (stereo not drawn), the “hERG current change (%, negative = inhibition) at 1uM” value is recorded as -7.45%. To `C=CCNc1nc(C(=O)OCC(=O)Nc2c(Cl)cccc2C(F)(F)F)cs1` belongs 18.2%. To `O=Cc1ccc(Oc2cnccn2)cc1` belongs 15.7%; to `CCn1cc(Br)c(C(=O)N(C)Cc2ccccc2)n1`, 11.4%; to `COC(=O)c1scc2c(Oc3ccccc3)cc(C(F)(F)F)nc12`, 20%. Under `Cc1ccc(C2NCCS2)cc1` (stereo not drawn) stands 12.2%. For `O=C1C/C(=C/NCc2ccccc2)C(=O)N1`, the “hERG current change (%, negative = inhibition) at 1uM” value is 16.4%. Under `CC1(C)C(=O)OC(c2cc(Br)ccc2O)C(C)(C)C1=O` (stereo not drawn) stands 7.33%; under `CCCn1nnnc1NC(=O)COc1ccc(CC)cc1`, 6.24%. To `CC(C)(Cc1ccc(O)cc1)NC(=O)c1ccccc1` belongs 5.46%. Under `Cc1ncc(CN2CCCC(C(=O)Nc3ccc(-n4ccnc4C)cc3)C2)cn1` (stereo not drawn) stands 13%; under `C=CCOc1ccc(/C=C/C(=O)OCC(=O)NCc2cccc(OC)c2)cc1`, 6.65%; under `Cc1ccc(-n2nnnc2C(Cl)(Cl)c2nnnn2-c2ccc(C)cc2)cc1`, 4.37%. Regarding `CCC(C)N(CC(=O)NCc1ccc(OC)cc1)C(=O)c1csnn1` (stereo not drawn), the “hERG current change (%, negative = inhibition) at 1uM” value is -5.54%. To `CCOC(=O)Cn1c(=N)n(CCOc2ccc3ccccc3c2)c2ccccc21.Cl` belongs -20.9%; to `CS(=O)(=O)N(CC(=O)N1CCc2ccccc2C1)c1cccc(Br)c1`, 1.25%; to `Cc1c(NC(=O)c2cc(=O)[nH]c3ccccc23)c(=O)n(-c2ccccc2)n1C`, 14.6%. Regarding `COc1cc(CCC(C)=O)ccc1OC(=O)c1c(F)cccc1Cl`, the “hERG current change (%, negative = inhibition) at 1uM” value is reported as 3.27%.

With `Cc1ccc(C2=NCC(=O)Nc3ccc(Br)cc32)cc1`, the “hERG current change (%, negative = inhibition) at 1uM” value was determined as 9.52%. Under `Cc1cc(OCC(=O)N2CCCC2)cc(C)c1Cl` stands 4.03%; under `O=[N+]([O-])c1c(Nc2cccc(O)c2)cc(Cl)c2nonc12`, 7.11%; under `O=C(COC(=O)c1ccc(O)cc1)Nc1ccc(OC(F)F)cc1`, -2.14%.

With `CCc1ccc(Nc2cc(C)nc3nc(C)nn23)cc1`, the “hERG current change (%, negative = inhibition) at 1uM” value is on record as -9.83%. As to `COC(=O)c1ccc(OCC(=O)c2ccc(C)c(C)c2)cc1`, the “hERG current change (%, negative = inhibition) at 1uM” value is 5.68%.

For `CCC/C(=N\NC(=O)c1ccccc1C)c1ccccc1`, the “hERG current change (%, negative = inhibition) at 1uM” value was determined as 12.7%.

In the case of `COCCNC(=O)C(Cc1c[nH]c2ccccc12)NC(=O)OCc1ccccc1` (stereo not drawn), the “hERG current change (%, negative = inhibition) at 1uM” value is reported as 10.8%. To `CCOC(=O)c1ccc(CNCc2ccccc2)cc1` belongs 4.25%. Under `CCOC(=O)N1CCC(N(C(=O)Nc2ccc(CC)cc2)C(C)CC)CC1` (stereo not drawn) stands -1.23%; under `CCN(C(=O)CSc1nnc(-c2ccncc2)o1)c1ccccc1`, 13.2%; under `COc1ccc(-c2cn[nH]c2-c2ccc(O)cc2O)cc1OC`, 10.8%. Under `Cc1ccc(N2C(=O)C(Cl)=C(N3CCCCCC3)C2=O)cc1` stands 17%; under `O=C(Nc1ccc(Cl)cc1)N1CCC(c2nc(-c3ccc(F)cc3)no2)CC1`, 9.17%. As to `COc1ccc(C(c2nnnn2C2CCCCC2)N2CCN(C)CC2)c(OC)c1` (stereo not drawn), the “hERG current change (%, negative = inhibition) at 1uM” value was 0.861%. As to `C=CCn1c(SCC(=O)N(C)C)nc2sc3c(c2c1=O)CCC3`, the “hERG current change (%, negative = inhibition) at 1uM” value amounted to 7.26%. Under `COc1ccc(C(=O)NC(=S)NNC(=O)CCc2ccccc2)cc1` stands 18.5%; under `CCOc1ccc(S(=O)(=O)N/N=C(\C)C2CCCCC2)cc1`, 5.35%; under `CCCCCCCCCCn1cc(C(C)=O)c(=O)[nH]c1=O`, 6.85%.

Consider `CC(=O)NC1(c2ccccc2)CCN(c2nc(C)cc(C)n2)CC1`, for which the “hERG current change (%, negative = inhibition) at 1uM” value amounted to 12.1%. Regarding `Clc1ccc(N2CCN(/N=C/c3ccncc3)CC2)cc1`, the “hERG current change (%, negative = inhibition) at 1uM” value is given as 9.28%. Under `CCOc1ccc(CC2CCC(=O)NC2=O)cc1` (stereo not drawn) stands -6.71%; under `C=CCn1c(CNc2ccc(C)cc2)nnc1SCC(=O)N/N=C/c1ccc(O)cc1O`, -2.46%; under `COC(=O)c1ccccc1NC(=O)CSc1n[nH]c(-c2cccnc2)n1`, 10.7%. `COc1ccc(Nc2cc(C(=O)N3CCc4ccccc4C3)c3ccccc3n2)c(OC)c1`: the “hERG current change (%, negative = inhibition) at 1uM” value is 10.8%.

Take `O=C(N/N=C/c1cc(Br)c(Br)o1)c1ccc2c(c1)OCCO2`: the “hERG current change (%, negative = inhibition) at 1uM” value is 13.2%. Under `Cc1[nH]n(C(N)=S)c(=O)c1N=Nc1cccc(C(F)(F)F)c1` stands 10.3%. To `CC1CCC(C(C)C)C(OP(N)(=O)c2ccccc2)C1` (stereo not drawn) belongs 1.84%; to `O=C(NNC1CC(c2ccccc2)=NN1C(=O)c1ccccc1)c1ccccc1` (stereo not drawn), 5.4%.
